Some of the results follow. Many values rest on one well or one pass, so single values are uncertain.
Each compound was assayed on 501Mel (assay: cell count relative to DMSO control; melanoma cells; higher = more viable cells). Settings: library dose: low library concentration; 72 h.
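Further: cell number obtained by counting DAPI-stained nuclei in high-throughput microscope images with image analysis software, screen run in 1,536-well plates.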

| SMILES | cell count |
| --- | --- |
| O=C(O)c1ccc2c(c1)nc(Nc1cccc(Cl)c1)c1ccncc12 + C[As](C)SC[C@H](NC(=O)CC[C@H](N)C(=O)O)C(=O)NCC(=O)O [Darinaparsin] (first compound 0.4 µM, partner dose 0.4 µM) | 84.2% |
| Cn1c(Nc2ccc(C(F)(F)F)cc2)nc2cc(Oc3ccnc(-c4ncc(C(F)(F)F)[nH]4)c3)ccc21 + Cc1cc(SCc2sc(-c3ccc(C(F)(F)F)c(F)c3)nc2C)ccc1OCC(=O)O [GW0742] (first compound 0.08 µM, partner dose 2 µM) | 54.4% |
| C#Cc1cccc(Nc2ncnc3cc(OCCOC)c(OCCOC)cc23)c1 [erlotinib] + O=C(Oc1ccc([N+](=O)[O-])cc1)N1CCC(C(O)(c2ccc3c(c2)OCO3)c2ccc3c(c2)OCO3)CC1 [JZL184] (first compound 0.8 µM, partner dose 1 µM) | 99% |
| Cc1cc(Nc2cc(N3CCN(C)CC3)nc(Sc3ccc(NC(=O)C4CC4)cc3)n2)n[nH]1 [Tozasertib] + Cn1cc(C2=C(c3cn(C4CCN(Cc5ccccn5)CC4)c4ccccc34)C(=O)NC2=O)c2ccccc21 [Enzastaurin] (first compound 0.006 µM, partner dose 0.8 µM) | 30.8% |
| O=C(CCCCCCC(=O)Nc1ccccc1)NO [vorinostat] + C/C(O)=C(\C#N)C(=O)Nc1cc(Br)ccc1Br [LFM-A13] (first compound 0.08 µM, partner dose 2 µM) | 95.2% |
| Oc1cc(-c2nc(-c3ccccc3)[nH]c2-c2ccncc2)ccc1Cl + C/C(O)=C(\C#N)C(=O)Nc1cc(Br)ccc1Br [LFM-A13] (first compound 0.2 µM, partner dose 2 µM) | 89.8% |
| c1cc(-c2cnn3cc(-c4ccc(OCCN5CCCCC5)cc4)cnc23)ccn1 [Dorsomorphin] + O=C(Oc1ccc([N+](=O)[O-])cc1)N1CCC(C(O)(c2ccc3c(c2)OCO3)c2ccc3c(c2)OCO3)CC1 [JZL184] (first compound 0.4 µM, partner dose 1 µM) | 97.3% |
| CN1CCN(c2ccc3nc(-c4c(N)c5c(F)cccc5[nH]c4=O)[nH]c3c2)CC1 [Dovitinib] + C[As](C)SC[C@H](NC(=O)CC[C@H](N)C(=O)O)C(=O)NCC(=O)O [Darinaparsin] (first compound 0.1 µM, partner dose 0.4 µM) | 82.9% |
| Cc1cc(Nc2cc(N3CCN(C)CC3)nc(Sc3ccc(NC(=O)C4CC4)cc3)n2)n[nH]1 [Tozasertib] + C[As](C)SC[C@H](NC(=O)CC[C@H](N)C(=O)O)C(=O)NCC(=O)O [Darinaparsin] (first compound 0.006 µM, partner dose 0.4 µM) | 81.3% |
| C#Cc1cccc(Nc2ncnc3cc(OCCOC)c(OCCOC)cc23)c1 [erlotinib] + C/C(O)=C(\C#N)C(=O)Nc1cc(Br)ccc1Br [LFM-A13] (first compound 0.8 µM, partner dose 2 µM) | 100% |
| Oc1nc(-c2ccc(C(F)(F)F)cc2)nc2c1CSCC2 + O=C(Oc1ccc([N+](=O)[O-])cc1)N1CCC(C(O)(c2ccc3c(c2)OCO3)c2ccc3c(c2)OCO3)CC1 [JZL184] (first compound 2 µM, partner dose 1 µM) | 86.8% |
| C[C@@H]1CCN(C(=O)CC#N)C[C@@H]1N(C)c1ncnc2[nH]ccc12 + Cc1cc(SCc2sc(-c3ccc(C(F)(F)F)c(F)c3)nc2C)ccc1OCC(=O)O [GW0742] (first compound 1 µM, partner dose 2 µM) | 86.3% |
| COc1cc2ncnc(Nc3ccc(Oc4ccccc4)cc3)c2cc1OC + O=C(Oc1ccc([N+](=O)[O-])cc1)N1CCC(C(O)(c2ccc3c(c2)OCO3)c2ccc3c(c2)OCO3)CC1 [JZL184] (first compound 2 µM, partner dose 1 µM) | 108% |
| C[C@@H]1CCN(C(=O)CC#N)C[C@@H]1N(C)c1ncnc2[nH]ccc12 + C/C(O)=C(\C#N)C(=O)Nc1cc(Br)ccc1Br [LFM-A13] (first compound 1 µM, partner dose 2 µM) | 98% |
| COCC[n+]1c2c(n(Cc3cnccn3)c1C)C(=O)c1ccccc1C2=O + C/C(O)=C(\C#N)C(=O)Nc1cc(Br)ccc1Br [LFM-A13] (first compound 0.0004 µM, partner dose 2 µM) | 132% |
